# PubChem BioAssay AID463173 (ICCB-Longwood Screening Facility, Harvard Medical School, 2010)
# Screen size: about 52,000 compounds; about 1,700 (3.3%) were called active. Cut-off read from the data, not from the text of the source: active = survival mostly below about 52% (no sharp cut-off); inactive = mostly above about 56%. The list shows a part of the results.
# Tested on: Wild type
# Assay: S. aureus survival, RN4220 and DeltatarO strains – OD600, teichoic acid synthesis inhibitors, primary screen (AID 463173)
# Details: S. aureus RN4220 wild type/DeltatarO growth, OD600, 18 h, hits give low values, screened at 18.75 µg/mL (by protocol)
row,SMILES,survival
1,Cc1ccc(C(=O)c2oc3ccccc3c2NC(=O)c2cc(=O)c3ccccc3o2)cc1,inactive: 88%
2,COc1ccc(CNC(=O)Cn2ccc3cc(S(=O)(=O)N4CCCCCC4)ccc32)cc1OC,inactive: 120%
3,COc1cccc(-c2cn3c(n2)sc2cc(C(=O)NCc4cccs4)ccc23)c1,inactive: 66%
4,CCOc1ccc2nc(Cl)c(CN(Cc3ccco3)C(=O)C3CC3)cc2c1,inactive: 101%
5,COc1ccc2oc(=O)cc(CN3CCN(C(=O)c4ccccc4F)CC3)c2c1,inactive: 76%
6,CCCCC(CC)C(=O)Nc1nnc(C(C)C)s1 (configuration not stated),inactive: 110%
7,NC(=O)C1CCN(CC(=O)Nc2ccccc2)CC1,inactive: 97%
8,O=C(CC(c1ccccc1)c1ccccc1)N1CCN(c2ccccn2)CC1,inactive: 99%
9,Cc1ccc(Cl)cc1N1CCN(C(=O)c2cc(S(=O)(=O)N3CCC(C)CC3)cn2C)CC1,inactive: 70%
10,CC(=O)Nc1ccc(NC(=O)CC2Sc3ccccc3NC2=O)cc1 (configuration not stated),inactive: 154%
11,CCOc1ccc(CNS(=O)(=O)c2ccc3[nH]c4c(c3c2)CCCC4)cc1OC,inactive: 55%
12,Cc1c(CNCc2ccc(Cl)cc2)c(C(=O)O)c(C)n1Cc1ccc(F)cc1,inactive: 98%
13,CCOc1ccc(CNC(=O)C2CCN(S(=O)(=O)c3c(C)noc3/C=C/c3ccc(C)cc3)CC2)cc1OC,inactive: 71%
14,COc1ccc(NC(=O)Cn2c(CCC(=O)O)ccc2-c2ccccc2)cc1Cl,inactive: 84%
15,COc1cccc(CNC(=O)CCc2nnc3n(C)c(=O)c4sccc4n23)c1,inactive: 64%
16,CCCN(CCC)CCCNC(=O)C1CCC(CNS(=O)(=O)c2ccc(NC(C)=O)cc2)CC1 (configuration not stated),inactive: 66%
17,CCN1C(=O)N(CC)C2NC(=S)NNC21 (configuration not stated),inactive: 103%
18,CCOC(=O)c1c(C)oc2nc(C)nc(Nc3cccc(OC)c3)c12,inactive: 80%
19,CCOC(=O)Cc1ccc(NC(=O)n2ncc3c(C)cccc32)cc1,inactive: 81%
20,CCOc1ccc(CC(=O)Nc2c(C(=O)c3ccc(F)cc3)oc3ccccc23)cc1OCC,inactive: 65%
21,CCC(O)c1nc2ccccc2n1Cc1cccc(Cl)c1 (configuration not stated),inactive: 90%
22,CN1CCN(S(=O)(=O)c2ccc(NC(=O)COc3ccccc3Cl)cc2)CC1,inactive: 110%

row,SMILES,survival
1,Cc1ccccc1CSc1cn(CCNC(=O)c2cccs2)c2ccccc12,inactive: 79%
2,COc1ccc(C(CNC(=O)COc2ccc(C)c(C)c2)N2CCCCC2)cc1 (configuration not stated),inactive: 85%
3,CN(C)c1nc(C#N)nc(N2CCOCC2)n1,inactive: 105%
4,COc1cccc(/C=N/n2c(-c3ccco3)nc3ccccc3c2=O)c1,inactive: 105%
5,Cc1cc(C)c(NC(=O)Cn2nc3c(cc2=O)CCCC3)c(C)c1,inactive: 88%
6,COCCCN1C(=O)N(c2ccccc2)C(=O)C1CC(=O)Nc1ccc(F)cc1 (configuration not stated),inactive: 84%
7,O=C(NCc1ccc2c(c1)CCN2C(=O)c1ccc(F)cc1)c1ccc(Br)o1,inactive: 55%
8,COc1cc(OC)cc(C(=O)Nc2cc3nn(-c4ccccc4)nc3cc2Cl)c1,inactive: 56%
9,CCCS(=O)(=O)c1ncc(Cl)c(C(=O)N(Cc2ccccc2)Cc2ccco2)n1,inactive: 44%
10,CCOc1ccc(-c2oc3ccccc3c(=O)c2O)cc1OCC,inactive: 81%
11,O=C(Nc1ccc(S(=O)(=O)Nc2ccccc2)cc1)N1CCCC1,inactive: 72%
12,COc1ccccc1NC(=O)N1CC(=O)Nc2sc3c(c2C1c1ccccc1)CCCC3 (configuration not stated),inactive: 108%
13,COc1ccccc1NC(=O)C1=C(C)Nc2c(C(=O)Nc3ccc(F)cc3)cnn2C1c1ccc(Cl)cc1 (configuration not stated),inactive: 55%
14,O=C(C1Cc2ccccc2CN1S(=O)(=O)c1ccc(F)cc1)N1CCCCC1 (configuration not stated),inactive: 101%
15,Cn1c(=O)c2c(nc(SCC(=O)Nc3ccc(OC(F)(F)F)cc3)n2Cc2cccc(C(F)(F)F)c2)n(C)c1=O,inactive: 85%
16,COc1ccc(-c2noc(-c3ccc(NCc4ccc(C)cc4)c([N+](=O)[O-])c3)n2)cc1OC,inactive: 79%
17,COc1cccc(C2N(c3ccccc3)CCN2c2ccccc2)c1OC,inactive: 105%
18,Cc1ccc(S(=O)(=O)Nc2cc3c(cc2C)n(C)c(=O)c(=O)n3C)cc1,active: -4%
19,O=C(Cn1c(=O)n(-c2ccc(F)cc2)c(=O)c2sc3ccccc3c21)N1CCCC1,inactive: 70%
20,Cc1cc(NC(=O)N2CC=C(c3c[nH]c4ccccc34)CC2)ccc1Br,inactive: 81%
21,CCOC(=O)c1sc2ccccc2c1S(=O)(=O)Nc1c(C)cccc1C,inactive: 79%
22,Cn1nc(C(=O)NCc2ccccc2)c2c1-c1ccccc1SC2,inactive: 86%

row,SMILES,survival
1,Cc1ccc(CSC2=Nc3ccccc3C3=NC(CCC(=O)N4CCN(c5ccccc5)CC4)C(=O)N23)cc1 (configuration not stated),inactive: 98%
2,Cc1ccc(-c2onc(C)c2C)cc1S(=O)(=O)N1CCCCC1,inactive: 71%
3,CCc1nn(CC(=O)NCCc2ccc(OC)cc2OC)c(=O)c2cc3sccc3n12,inactive: 125%
4,COc1cccc(CNC(=O)Cn2cc3c(n2)-c2c(oc(C(=O)N4CCCC4)c2C)CC3)c1OC,inactive: 88%
5,Cc1ccccc1NC(=O)CSc1nc(-c2ccc(F)cc2)c2cccc(C)c2n1,inactive: 85%
6,COc1cc(CNC(=O)c2cc(-c3ccccc3)n[nH]2)cc(OC)c1OC,inactive: 72%
7,COc1ccc(-n2nc(C(=O)N3CCC(C)CC3)c3c4ccccc4n(C)c3c2=O)cc1Cl,inactive: 84%
8,CCCc1noc(-c2ccc(N3CCCCC3)c([N+](=O)[O-])c2)n1,inactive: 77%
9,Cc1ccc2cc(CN(CCN(C)C)C(=O)NC3CCCCC3)c(=O)[nH]c2c1,inactive: 111%
10,COc1cccc(-c2nc(SCC(=O)Nc3ccc4c(c3)OCO4)c(-c3ccccc3)[nH]2)c1,inactive: 45%
11,COc1cc(NC(=O)Cn2ncc3c(=O)oc4ccccc4c32)cc(OC)c1OC,inactive: 80%
12,Cc1nc2c(cnn2-c2ccccc2Cl)c(=O)n1-c1ccc(C(C)C)cc1,inactive: 94%
13,CCc1ccc(S(=O)(=O)c2nnn3c2nc(NCCc2ccccc2)c2sccc23)cc1,inactive: 61%
14,Cc1cccc(N2CCN(S(=O)(=O)c3cc(Br)cc4c3N(C(=O)C3CC3)CC4)CC2C)c1 (configuration not stated),inactive: 75%
15,COc1ccc(CCn2cc3c(c2-c2ccccc2Br)c(=O)n(C)c(=O)n3C)cc1OC,inactive: 79%
16,COC(=O)c1ccc(-c2ccc(/C=N/NC(=O)CC3(C)OCCCO3)o2)cc1,inactive: 109%
17,CCOC(=O)c1cc(S(=O)(=O)Nc2ccc(OC)c(Cl)c2)[nH]n1,active: -6%
18,CCOC(=O)C1(C)C=C(Nc2ccc(C(N)=O)cc2)C(=O)N1c1ccccc1 (configuration not stated),inactive: 68%
19,COc1ccc2c(Sc3ccccc3)c(C(=O)NCc3cccc(OC)c3OC)[nH]c2c1,inactive: 89%
20,CCOc1ccc(CCNC(=O)CCCc2nnc3n(CC(C)C)c(=O)c4sccc4n23)cc1,inactive: 89%
21,CC(C)OCCCn1c(SCc2cccc(Br)c2)nc2c(sc3ccccc32)c1=O,inactive: 85%
22,CN1C(=O)Cc2cc(S(=O)(=O)CCC(=O)Nc3cccc(C(F)(F)F)c3)ccc21,inactive: 82%

row,SMILES,survival
1,CC(=O)N1c2ccc(S(=O)(=O)NCC3CCC(C(=O)NCCC(C)C)CC3)cc2CC1C (configuration not stated),inactive: 109%
2,O=S(=O)(NCc1ccc2c(c1)OCO2)c1ccc(S(=O)(=O)NC2CCCCC2)cc1,inactive: 104%
3,Cc1ccc(OC(=O)c2cc(-c3ccccc3)nc3ccc(C)cc23)cc1,inactive: 61%
4,COCCNC(=O)c1ccc2c(c1)N(Cc1cccc(Cl)c1)C(=O)c1ccccc1S2(=O)=O,inactive: 81%
5,COc1ccccc1Oc1nc2c(c(=O)n(C)c(=O)n2C)n1Cc1cccc(Br)c1,inactive: 78%
6,CCOC(=O)N1CC=C2C(C#N)=C(N)C(C#N)(C#N)C(CC)C2C1 (configuration not stated),inactive: 109%
7,CC(=O)Nc1ccc(S(=O)(=O)Nc2cccc(-c3ccc(N4CCC(C)CC4)nn3)c2)cc1,inactive: 111%
8,CCOC(=O)C1CCN(C(=O)c2ccc3c(c2)sc2nc(-c4ccccc4)cn23)CC1,inactive: 42%
9,CCSc1nnc(C2CCCN(C(=O)C3CCC(OC)CC3)C2)n1C (configuration not stated),inactive: 126%
10,COc1cccc(CNC(=O)C2Cc3cc(S(=O)(=O)N4CCCCCC4)ccc3N2C(C)=O)c1 (configuration not stated),inactive: 99%
11,COc1ccc(CC(=O)NCc2ccc3c(c2)CCN3C(C)=O)cc1OC,inactive: 78%
12,CCN(CC)S(=O)(=O)c1ccc2c(c1)c(=O)c(C(=O)NCc1ccc(Cl)cc1)cn2C,inactive: 73%
13,Nc1c(C(=O)Nc2ccc(Cl)c(C(F)(F)F)c2)sc2nc(-c3ccncc3)ccc12,inactive: 79%
14,Cc1c(C(=O)N(C)C)sc2c1c(=O)n(-c1ccc(F)cc1)c(=O)n2Cc1cc(=O)n2ccccc2n1,inactive: 128%
15,COc1cccc(CN(Cc2ccc3c(c2)OCO3)S(=O)(=O)c2ccc(-n3cnnn3)cc2)c1,inactive: 121%
16,CN(C(=O)CCc1ccccc1)c1nnc(-c2ccncc2)s1,inactive: 104%
17,CCC(=O)N1CCc2cc(Br)cc(S(=O)(=O)N3CCCC(C(=O)NCc4cccc(OC)c4)C3)c21 (configuration not stated),inactive: 133%
18,Cc1nc2c(-c3ccccc3)c(C)nn2c(C)c1CCC(=O)N1CCN(c2ccccc2)CC1,inactive: 74%
19,CC(=O)N1CCCc2ccc(NS(=O)(=O)c3ccc(C)c(C)c3)cc21,inactive: 73%
20,COc1ccc(C(=O)COC(=O)c2cc(-c3ccccc3)nc3c(C)cccc23)cc1,inactive: 76%
21,Cc1ccc(Cc2nc3ccccc3nc2SCC(=O)N2CCN(c3ccccc3F)CC2)cc1,inactive: 22%
